Laboratory results as given in the supplement of paper PMC8728848.
The other results are listed elsewhere or left out.

What was measured:
Experiment in all cases: glycan array binding signal (z-score within array); higher = stronger binding
Details in all cases: glycan notation: IUPAC condensed, linker removed
[1] = biological target: Fuc(a1-2)[Gal(a1-3)]Gal(b1-4)GlcNAc(b1-2)Man(a1-3)[Fuc(a1-2)[Gal(a1-3)]Gal(b1-4)GlcNAc(b1-2)Man(a1-6)]Man(b1-4)GlcNAc(b1-4)[Fuc(a1-6)]GlcNAc
How it was run: (§1)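 Columns mapping to the same glycan were averaged after glycan names were converted to IUPAC-condensed notation. The data come from 3228 arrays in the Consortium for Functional Glycomics database, limited to those with an available protein sequence. Binding is reported as a within-array Z-score averaged across arrays of one protein sequence and across linkers.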

[2] = biological target: Fuc(a1-2)[Gal(a1-3)]Gal(b1-4)GlcNAc(b1-3)GalNAc
How it was run: as §1

[3] = biological target: Fuc(a1-2)[Gal(a1-3)]Gal(b1-4)GlcNAc(b1-3)[Fuc(a1-2)[Gal(a1-3)]Gal(b1-4)GlcNAc(b1-6)]GalNAc
How it was run: as §1

[4] = biological target: Fuc(a1-2)[Gal(a1-3)]Gal(b1-4)GlcNAc(b1-6)GalNAc
How it was run: as §1

[5] = biological target: Fuc(a1-2)[Gal(a1-3)]Gal(b1-4)[Fuc(a1-3)]Glc
How it was run: as §1

[6] = biological target: Fuc(a1-2)[Gal(a1-3)]Gal(b1-4)[Fuc(a1-3)]GlcNAc
How it was run: as §1

[7] = biological target: Fuc(a1-2)[Gal(a1-3)]Gal(b1-4)[Fuc(a1-3)]GlcNAc(b1-3)GalNAc
How it was run: as §1

[8] = biological target: Fuc(a1-2)[Gal(a1-4)]Gal(b1-4)GlcNAc
How it was run: as §1

[9] = biological target: Fuc(a1-2)[GalNAc(a1-3)]Gal
How it was run: as §1

[10] = biological target: Fuc(a1-2)[GalNAc(a1-3)]Gal(b1-3)GalNAc(a1-3)[Fuc(a1-2)]Gal(b1-4)GlcNAc
How it was run: as §1

[11] = biological target: Fuc(a1-2)[GalNAc(a1-3)]Gal(b1-3)GalNAc(b1-3)Gal(a1-4)Gal(b1-4)Glc
How it was run: as §1

[12] = biological target: Fuc(a1-2)[GalNAc(a1-3)]Gal(b1-3)GlcNAc
How it was run: as §1

[13] = biological target: Fuc(a1-2)[GalNAc(a1-3)]Gal(b1-3)GlcNAc(b1-2)Man(a1-3)[Fuc(a1-2)[GalNAc(a1-3)]Gal(b1-3)GlcNAc(b1-2)Man(a1-6)]Man(b1-4)GlcNAc(b1-4)GlcNAc
How it was run: as §1

[14] = biological target: Fuc(a1-2)[GalNAc(a1-3)]Gal(b1-3)GlcNAc(b1-2)Man(a1-3)[Fuc(a1-2)[GalNAc(a1-3)]Gal(b1-3)GlcNAc(b1-2)Man(a1-6)]Man(b1-4)GlcNAc(b1-4)[Fuc(a1-6)]GlcNAc
How it was run: as §1

[15] = biological target: Fuc(a1-2)[GalNAc(a1-3)]Gal(b1-3)GlcNAc(b1-3)GalNAc
How it was run: as §1

[16] = biological target: Fuc(a1-2)[GalNAc(a1-3)]Gal(b1-3)GlcNAc(b1-6)GalNAc
How it was run: as §1

[17] = biological target: Fuc(a1-2)[GalNAc(a1-3)]Gal(b1-4)Glc
How it was run: as §1

[18] = biological target: Fuc(a1-2)[GalNAc(a1-3)]Gal(b1-4)GlcNAc
How it was run: as §1

[19] = biological target: Fuc(a1-2)[GalNAc(a1-3)]Gal(b1-4)GlcNAc(b1-2)Man
How it was run: as §1

[20] = biological target: Fuc(a1-2)[GalNAc(a1-3)]Gal(b1-4)GlcNAc(b1-2)Man(a1-3)[Fuc(a1-2)[GalNAc(a1-3)]Gal(b1-4)GlcNAc(b1-2)Man(a1-6)]Man(b1-4)GlcNAc(b1-4)GlcNAc
How it was run: as §1

[21] = biological target: Fuc(a1-2)[GalNAc(a1-3)]Gal(b1-4)GlcNAc(b1-2)Man(a1-3)[Fuc(a1-2)[GalNAc(a1-3)]Gal(b1-4)GlcNAc(b1-2)Man(a1-6)]Man(b1-4)GlcNAc(b1-4)[Fuc(a1-6)]GlcNAc
How it was run: as §1

[22] = biological target: Fuc(a1-2)[GalNAc(a1-3)]Gal(b1-4)GlcNAc(b1-3)Gal(b1-4)GlcNAc
How it was run: as §1

[23] = biological target: Fuc(a1-2)[GalNAc(a1-3)]Gal(b1-4)GlcNAc(b1-3)Gal(b1-4)GlcNAc(b1-3)Gal(b1-4)GlcNAc
How it was run: as §1

[24] = biological target: Fuc(a1-2)[GalNAc(a1-3)]Gal(b1-4)GlcNAc(b1-3)GalNAc
How it was run: as §1

[25] = biological target: Fuc(a1-2)[GalNAc(a1-3)]Gal(b1-4)GlcNAc(b1-3)[Fuc(a1-2)[GalNAc(a1-3)]Gal(b1-4)GlcNAc(b1-6)]GalNAc
How it was run: as §1

[26] = biological target: Fuc(a1-2)[GalNAc(a1-3)]Gal(b1-4)GlcNAc(b1-6)GalNAc
How it was run: as §1

[27] = biological target: Fuc(a1-2)[GalNAc(a1-3)]Gal(b1-4)[Fuc(a1-3)]GlcNAc
How it was run: as §1

[28] = biological target: Fuc(a1-2)[GalNAc(a1-3)]Gal(b1-4)[Fuc(a1-3)]GlcNAc(b1-3)GalNAc
How it was run: as §1

[29] = biological target: Fuc(a1-2)[GalNAc(a1-4)]Gal(b1-4)GlcNAc
How it was run: as §1

[30] = biological target: Fuc(a1-2)[GalNAc(b1-3)]Gal
How it was run: as §1

[31] = biological target: Fuc(a1-3)GlcNAc
How it was run: as §1

[32] = biological target: Fuc(a1-3)[Gal(b1-4)]Glc6S
How it was run: as §1

[33] = biological target: Fuc(a1-3)[Gal(b1-4)]GlcNAc
How it was run: as §1

[34] = biological target: Fuc(a1-3)[Gal(b1-4)]GlcNAc(b1-2)Man
How it was run: as §1

[35] = biological target: Fuc(a1-3)[Gal(b1-4)]GlcNAc(b1-2)Man(a1-3)[Fuc(a1-3)[Gal(b1-4)]GlcNAc(b1-2)Man(a1-6)]Man(b1-4)GlcNAc(b1-4)GlcNAc
How it was run: as §1

[36] = biological target: Fuc(a1-3)[Gal(b1-4)]GlcNAc(b1-2)Man(a1-3)[Fuc(a1-3)[Gal(b1-4)]GlcNAc(b1-2)Man(a1-6)]Man(b1-4)GlcNAc(b1-4)[Fuc(a1-6)]GlcNAc
How it was run: as §1

[37] = biological target: Fuc(a1-3)[Gal(b1-4)]GlcNAc(b1-3)Gal(b1-3)[Fuc(a1-4)]GlcNAc
How it was run: as §1

B1: SP8524D-bot-399-27-399 (Bacteroides ovatus) (protein)
chain: DAKYDTLDTHAYIEEALSSTSQKVTVQATGESFTTLNVHLSNLSSTDNHYKLVTDQSVLDTYNHINGTGYIMLPKDYYTLPETITVKAGQYAADALSIALKAFSQEMMKSGESYALPVKLVLQDGSISPMENTGTFVILAESIIEFSAPMFVGAPSLKANKFTESPETYSQYTIEVRFQVANTADRDRAVFKNGGDDANFILLRFEDPQSDNENYKAHSLVQIVGRNRLYLNPSNSFKPNEWQHLALVCDGSNYRLYINGVDSGVLSIPTGATTFSDVNWFCLGDDSYSRWGNCKILMSEARIWSVVRSASQIQNNMTQVSPKSVGLEAYWRFNEGQGNVFEDATGKGHTLTTSATPTWIDGILSTDKSTEWK
glycan array binding signal (z-score) [1]: 0.035
glycan array binding signal (z-score) [2]: -0.252
glycan array binding signal (z-score) [3]: -0.277
glycan array binding signal (z-score) [4]: -0.255
glycan array binding signal (z-score) [5]: -0.305
glycan array binding signal (z-score) [6]: -0.086
glycan array binding signal (z-score) [7]: -0.316
glycan array binding signal (z-score) [8]: 0.747
glycan array binding signal (z-score) [9]: -0.185
glycan array binding signal (z-score) [10]: -0.104
glycan array binding signal (z-score) [11]: -0.264
glycan array binding signal (z-score) [12]: 0.629
glycan array binding signal (z-score) [13]: -0.142
glycan array binding signal (z-score) [14]: -0.246
glycan array binding signal (z-score) [15]: -0.181
glycan array binding signal (z-score) [16]: -0.246
glycan array binding signal (z-score) [17]: -0.241
glycan array binding signal (z-score) [18]: -0.328
glycan array binding signal (z-score) [19]: -0.268
glycan array binding signal (z-score) [20]: -0.365
glycan array binding signal (z-score) [21]: -0.208
glycan array binding signal (z-score) [22]: 0.342
glycan array binding signal (z-score) [23]: -0.602
glycan array binding signal (z-score) [24]: -0.499
glycan array binding signal (z-score) [25]: -0.238
glycan array binding signal (z-score) [26]: -0.37
glycan array binding signal (z-score) [27]: 0.06
glycan array binding signal (z-score) [28]: -0.027
glycan array binding signal (z-score) [29]: -0.218
glycan array binding signal (z-score) [30]: 0.093
glycan array binding signal (z-score) [31]: 0.311
glycan array binding signal (z-score) [32]: -0.514
glycan array binding signal (z-score) [33]: -0.28
glycan array binding signal (z-score) [34]: 0.413
glycan array binding signal (z-score) [35]: -0.568
glycan array binding signal (z-score) [36]: -0.313
glycan array binding signal (z-score) [37]: -0.267
